From the RNAGym collection of RNA variant scans (doi:10.7554/elife.90254)
The source gives no read counts; variants with many changes may rest on few reads.

B1: LINE1-full (parent)
chain: UACGUAGGUGGUUUUCCCCUGAUAGUGCUAAGGGGGCCUGGAAGUUUGGACUGGGCAGAGCUCAACACAGCGUGGCAAAGUGGCUGUGGCUAGACUGCCUCUCUGGAUUCCUCGUCACUCAGCAGGGCAUCUCUGAGAGAAAUGCC

Variants of: B1
Test: self-cleavage, relative activity (ratio to wild type); higher = more cleavage; in vitro, sequencing; the parent is a self-cleaving ribozyme
U47C A107U U112C showed a self-cleavage of 1.15. Work on U47C A121G G126A yielded a self-cleavage of 0.77. Work on U45C A50U U91C yielded a self-cleavage of 0. For U46C A50U A65G, the self-cleavage was 0. With U45C A69G G80U U115C U134G the self-cleavage was 0.92. U47C A64U U100C A107U U119C A124U gave a self-cleavage of 1.05. Work on U46A U47A A77C U108C yielded a self-cleavage of 0.98. Variant U45C A78G U96A U132C has a self-cleavage of 0. With U47A U52A A77U U109A A138G the self-cleavage was 1.31. With U45A U102C U134A A141G the self-cleavage was 2.25. U47C A57U C99U A141G showed a self-cleavage of 0.08. With U46C U108A C146U the self-cleavage was 1.32. U45C A57U U134A gave a self-cleavage of 0.07. In the case of U45G G70A A79U A94G A121G, the self-cleavage is reported as 0.11. U46C A64U U143C showed a self-cleavage of 0.35. Work on U46C U52A A79G U130C yielded a self-cleavage of 0.92. U47C A77G C103A A117G gave a self-cleavage of 1.84. U45C A94G U96C gave a self-cleavage of 0. Work on U47C A78G A124G yielded a self-cleavage of 2.63. Work on U45A U91A A92U U112C yielded a self-cleavage of 0.81. In the case of U47A U85C U108C U134C, the self-cleavage is reported as 0. Variant U46C U130C A141U has a self-cleavage of 1.13. U45C U108C A136G A142U U143G showed a self-cleavage of 1.15. In the case of U45C U81A A124U, the self-cleavage is reported as 2.24. U46A U85C G97A A121U showed a self-cleavage of 0.05. U47C A64G C84G A92G showed a self-cleavage of 0. For U45G U96C G125A, the self-cleavage was 0.09. Variant U46C C110A U115C U143A has a self-cleavage of 1.64. Work on U45C U81C C131U yielded a self-cleavage of 1.59. U47A G72A A124G A140G showed a self-cleavage of 0.06. With U46C G49U U100C A117G the self-cleavage was 2.24. With U46C U91A A94G U132C the self-cleavage was 0.5. Variant U46C A77C U132C has a self-cleavage of 1.5. U46C U85C G86A U115A gave a self-cleavage of 0.09. With U46C A67U U87C the self-cleavage was 0. G44U U45C A57G U130A showed a self-cleavage of 0.63. In the case of U45G U108C A141G, the self-cleavage is reported as 1.35. Variant U46A A59G A77G C128U A138G has a self-cleavage of 0.1. For U45G U47G U108C, the self-cleavage was 0.81. For A43U U100C C110U, the self-cleavage was 1.78. Variant U45G A77U U81A A141G has a self-cleavage of 2.07. In the case of U47C A64G C66A A78U U109A U132C A142G, the self-cleavage is reported as 0. Work on U45C A50U A94U U112A A117C A141G yielded a self-cleavage of 0.44. In the case of U46C A79G U104C, the self-cleavage is reported as 1.2. In the case of U45A A78G C95U, the self-cleavage is reported as 0.16. With U45C U108C C111U A140G A142C the self-cleavage was 1.26. U47A U96C G114A gave a self-cleavage of 0.05. U47C A67G C116U G125U showed a self-cleavage of 0.95. U46C A129U U143A gave a self-cleavage of 1.38. U47C A77G A124U gave a self-cleavage of 0. Variant U47A U102C A117G has a self-cleavage of 1.19. In the case of U46C A57G U73C, the self-cleavage is reported as 1.84. U45C U96A U143A gave a self-cleavage of 0. With U46C G114A A140G the self-cleavage was 0.87. With U47C A69U A77U A142G the self-cleavage was 0.08. With U45C G74A U112A the self-cleavage was 1.17. U46C U62A A78U U130A gave a self-cleavage of 0.05. With U45C A57U A140G the self-cleavage was 0.07. Work on U46A U73A U134A yielded a self-cleavage of 1.14. Work on G44A C61G A129G yielded a self-cleavage of 0. Variant U47C A64U A138G has a self-cleavage of 0.76. U45G A94G U104A gave a self-cleavage of 0. In the case of U47A A78G G88A, the self-cleavage is reported as 0.09. U47A U87C A124C U143A gave a self-cleavage of 0.16. With U46C G122U A138G the self-cleavage was 1.6. In the case of U45C A50G U52A A69G U85C G97A A129U, the self-cleavage is reported as 0. In the case of U45C A124C A129U U132C, the self-cleavage is reported as 1.61. U45C A77G A94G showed a self-cleavage of 0. Variant U45G A67G U119A A140G has a self-cleavage of 0.7. U47A A57U A77G C118U showed a self-cleavage of 0.08. Work on U47A U52A U109C A136U yielded a self-cleavage of 1.36. With U47C C71U A79U A92G U115C A129U the self-cleavage was 0. For U46C U85A U102C, the self-cleavage was 0.07. U46G A78G U102A A136G gave a self-cleavage of 1.15. U47A U102A U115A showed a self-cleavage of 1.17. In the case of U46C A59G U73A A78U, the self-cleavage is reported as 0.11. A43U U85C A94G showed a self-cleavage of 0. U45C C113A U132C showed a self-cleavage of 1.19. U45C A94G U96A U104C showed a self-cleavage of 0. For U46G A57G A140G, the self-cleavage was 0.22. With U46C U47C U96A the self-cleavage was 0.24. Work on U45C U52A A57U A77C A107G U132G A138U yielded a self-cleavage of 0. For U46C U73A A140G, the self-cleavage was 1.24. For U46C U73A U102C, the self-cleavage was 1.69.
